{"source": "the supplement of paper PMC8728848", "test_in_all_cases": "glycan array binding signal (z-score within array); higher = stronger binding", "conditions_in_all_cases": "glycan notation: IUPAC condensed, linker removed", "key": {"[1]": {"target": "GlcNAc(b1-2)Man(a1-3)[GlcNAc(b1-2)Man(a1-6)]Man(b1-4)GlcNAc(b1-4)GlcNAc", "in_short": "(§1)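 Glycan array data came from 3228 arrays in the Consortium for Functional Glycomics database, and only arrays with an available protein sequence were kept. Glycan names were put into IUPAC-condensed notation, and columns mapping to the same glycan were averaged. The binding signal is a within-array Z-score, averaged across arrays of one protein sequence run at different concentrations or buffers and across linkers. A negative Z-score can be read as non-binding.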"}, "[2]": {"target": "GlcNAc(b1-2)Man(a1-3)[GlcNAc(b1-2)Man(a1-6)]Man(b1-4)GlcNAc(b1-4)[Fuc(a1-6)]GlcNAc", "in_short": "as §1"}, "[3]": {"target": "GlcNAc(b1-2)Man(a1-3)[GlcNAc(b1-4)][GlcNAc(b1-2)Man(a1-6)]Man(b1-4)GlcNAc(b1-4)GlcNAc", "in_short": "as §1"}, "[4]": {"target": "GlcNAc(b1-2)Man(a1-3)[GlcNAc(b1-4)][GlcNAc(b1-2)Man(a1-6)]Man(b1-4)GlcNAc(b1-4)[Fuc(a1-6)]GlcNAc", "in_short": "as §1"}, "[5]": {"target": "GlcNAc(b1-2)[GlcNAc(b1-4)]Man(a1-3)[GlcNAc(b1-2)Man(a1-6)]Man(b1-4)GlcNAc(b1-4)GlcNAc", "in_short": "as §1"}, "[6]": {"target": "GlcNAc(b1-2)[GlcNAc(b1-4)]Man(a1-3)[GlcNAc(b1-4)][GlcNAc(b1-2)Man(a1-6)]Man(b1-4)GlcNAc(b1-4)GlcNAc", "in_short": "as §1"}, "[7]": {"target": "GlcNAc(b1-2)[GlcNAc(b1-4)]Man(a1-3)[GlcNAc(b1-4)][GlcNAc(b1-2)[GlcNAc(b1-6)]Man(a1-6)]Man(b1-4)GlcNAc(b1-4)GlcNAc", "in_short": "as §1"}, "[8]": {"target": "GlcNAc(b1-2)[GlcNAc(b1-4)]Man(a1-3)[GlcNAc(b1-4)][GlcNAc(b1-2)[GlcNAc(b1-6)]Man(a1-6)]Man(b1-4)GlcNAc(b1-4)[Fuc(a1-6)]GlcNAc", "in_short": "as §1"}, "[9]": {"target": "GlcNAc(b1-2)[GlcNAc(b1-6)]Man(a1-6)[GlcNAc(b1-2)Man(a1-3)]Man(b1-4)GlcNAc(b1-4)GlcNAc", "in_short": "as §1"}, "[10]": {"target": "GlcNAc(b1-2)[GlcNAc(b1-6)]Man(a1-6)[GlcNAc(b1-2)Man(a1-3)]Man(b1-4)GlcNAc(b1-4)[Fuc(a1-6)]GlcNAc", "in_short": "as §1"}, "[11]": {"target": "GlcNAc(b1-2)[GlcNAc(b1-6)]Man(a1-6)[GlcNAc(b1-4)][GlcNAc(b1-2)Man(a1-3)]Man(b1-4)GlcNAc(b1-4)GlcNAc", "in_short": "as §1"}, "GlcNAc(b1-3)Fuc": {"target": "GlcNAc(b1-3)Fuc", "in_short": "as §1"}, "GlcNAc(b1-3)Gal": {"target": "GlcNAc(b1-3)Gal", "in_short": "as §1"}, "[12]": {"target": "GlcNAc(b1-3)Gal(b1-3)GalNAc", "in_short": "as §1"}, "GlcNAc(b1-3)Gal(b1-4)Glc": {"target": "GlcNAc(b1-3)Gal(b1-4)Glc", "in_short": "as §1"}, "[13]": {"target": "GlcNAc(b1-3)Gal(b1-4)GlcNAc", "in_short": "as §1"}, "[14]": {"target": "GlcNAc(b1-3)Gal(b1-4)GlcNAc(b1-2)Man(a1-3)[GlcNAc(b1-3)Gal(b1-4)GlcNAc(b1-2)Man(a1-6)]Man(b1-4)GlcNAc(b1-4)GlcNAc", "in_short": "as §1"}, "[15]": {"target": "GlcNAc(b1-3)Gal(b1-4)GlcNAc(b1-2)Man(a1-3)[GlcNAc(b1-3)Gal(b1-4)GlcNAc(b1-2)Man(a1-6)]Man(b1-4)GlcNAc(b1-4)[Fuc(a1-6)]GlcNAc", "in_short": "as §1"}, "[16]": {"target": "GlcNAc(b1-3)Gal(b1-4)GlcNAc(b1-2)[GlcNAc(b1-3)Gal(b1-4)GlcNAc(b1-6)]Man(a1-6)[GlcNAc(b1-3)Gal(b1-4)GlcNAc(b1-2)Man(a1-3)]Man(b1-4)GlcNAc(b1-4)GlcNAc", "in_short": "as §1"}, "[17]": {"target": "GlcNAc(b1-3)Gal(b1-4)GlcNAc(b1-3)Gal(b1-4)GlcNAc", "in_short": "as §1"}, "[18]": {"target": "GlcNAc(b1-3)Gal(b1-4)GlcNAc(b1-3)Gal(b1-4)GlcNAc(b1-2)Man(a1-3)[GlcNAc(b1-3)Gal(b1-4)GlcNAc(b1-3)Gal(b1-4)GlcNAc(b1-2)Man(a1-6)]Man(b1-4)GlcNAc(b1-4)GlcNAc", "in_short": "as §1"}, "[19]": {"target": "GlcNAc(b1-3)Gal(b1-4)GlcNAc(b1-3)Gal(b1-4)GlcNAc(b1-2)Man(a1-3)[GlcNAc(b1-3)Gal(b1-4)GlcNAc(b1-3)Gal(b1-4)GlcNAc(b1-2)Man(a1-6)]Man(b1-4)GlcNAc(b1-4)[Fuc(a1-6)]GlcNAc", "in_short": "as §1"}}, "note": "The other results are listed elsewhere or left out."}
{"binder": "F17-L (Escherichia coli) (protein) GPDDYVPSQIAVNTSTLPGVVIGPADAHTYPRVIGELAGTSNQYVFNGGAIALMRGKFTPALPKIGSITYTFHQGNSRDSSDFDIYDIGVSGLGIIIGMAGYWPATPLVPINSSGIYIDPVGANTNPNTYNGATASFGARLFVAFVATGRLPNGYITIPTRQLGTILLEAKRTSLNNKGLTAPVMLNGGRIQVQSQTHHHHHH", "values": [{"measurement": "glycan array binding signal (z-score)", "setting": "[1]", "value": 0.13}, {"measurement": "glycan array binding signal (z-score)", "setting": "[2]", "value": 0.147}, {"measurement": "glycan array binding signal (z-score)", "setting": "[3]", "value": -0.052}, {"measurement": "glycan array binding signal (z-score)", "setting": "[4]", "value": -0.112}, {"measurement": "glycan array binding signal (z-score)", "setting": "[5]", "value": -0.237}, {"measurement": "glycan array binding signal (z-score)", "setting": "[6]", "value": -0.096}, {"measurement": "glycan array binding signal (z-score)", "setting": "[7]", "value": -0.075}, {"measurement": "glycan array binding signal (z-score)", "setting": "[8]", "value": -0.096}, {"measurement": "glycan array binding signal (z-score)", "setting": "[9]", "value": -0.055}, {"measurement": "glycan array binding signal (z-score)", "setting": "[10]", "value": -0.082}, {"measurement": "glycan array binding signal (z-score)", "setting": "[11]", "value": -0.083}, {"measurement": "glycan array binding signal (z-score)", "setting": "GlcNAc(b1-3)Fuc", "value": -0.033}, {"measurement": "glycan array binding signal (z-score)", "setting": "GlcNAc(b1-3)Gal", "value": -0.05}, {"measurement": "glycan array binding signal (z-score)", "setting": "[12]", "value": -0.124}, {"measurement": "glycan array binding signal (z-score)", "setting": "GlcNAc(b1-3)Gal(b1-4)Glc", "value": -0.078}, {"measurement": "glycan array binding signal (z-score)", "setting": "[13]", "value": -0.098}, {"measurement": "glycan array binding signal (z-score)", "setting": "[14]", "value": -0.106}, {"measurement": "glycan array binding signal (z-score)", "setting": "[15]", "value": -0.03}, {"measurement": "glycan array binding signal (z-score)", "setting": "[16]", "value": -0.012}, {"measurement": "glycan array binding signal (z-score)", "setting": "[17]", "value": -0.104}, {"measurement": "glycan array binding signal (z-score)", "setting": "[18]", "value": 0.024}, {"measurement": "glycan array binding signal (z-score)", "setting": "[19]", "value": -0.02}]}
